Data as given in PMC10668032.
This is one part of the list. At the low end of the ranking the order means little.

target: SIX1 homeodomain (reference allele) (UniProt Q15475); test: universal protein binding microarray; settings: Universal all-10-mer PBM (8x60K, AMADID 030236), 300 nM GST-tagged protein, Alexa Fluor 488 anti-GST; buffer, salt, pH and temperature not stated; high values mean tight binding; most listed sequences are background and not binding sites; double strand, one strand shown

Sequence | binding signal [E-score]
AACACAAA | -0.114
AAGGCATT | -0.0818
GAACATCC | -0.0366
GGCGAGAA | -0.0165
CCTTCTCG | 0.111
CGGCAACC | -0.111
ACTTGTAT | 0.246
GAATACCC | 0.368
CTTAATTC | -0.0274
TAGCATAA | -0.0723
GTTACTAA | -0.105
AATCGTCA | -0.0123
CCGGAGAA | -0.0972
GGAGACGA | 0.149
GCTGATCA | 0.198
CTTTACGC | -0.158
GACTTTGA | -0.193
CGCCAAGA | -0.154
CGTGTGAG | 0.0774
CAAGTAGC | -0.221
CGTTTTGC | -0.212
CATCGTAC | -0.0388
AAACTTTG | -0.263
AATCTCTG | -0.0279

Sequence | binding signal [E-score]
AAACCCAG | 0.0877
CGACACCG | 0.427
GATTATGA | 0.205
AGTAGTAA | -0.145
CCCGCACC | 0.0198
AGACTATG | -0.00755
ATGGGGCG | 0.14
CCTAAGCA | 0.0158
GATCAGTA | 0.347
AGCCCCAG | 0.0605
GAAGTACA | -0.0881
AATGCTAA | -0.213
CGTTGAGC | -0.0841
AATTTCGC | -0.246
TAGCACGA | -0.0903
CAACAGTG | -0.0138
CCGTATAA | 0.226
CTAAGTTA | 0.0331
CTTACTCC | 0.0264
AGAAGGAA | -0.0959
AAAGATCA | 0.234
AGGGAACC | -0.13
ACTCAACC | -0.0536
CGCTCAAC | -0.0776

Sequence | binding signal [E-score]
GGGGATAA | 0.311
GGACCTGA | -0.255
CGCTGTTC | -0.198
CCGACTGC | -0.188
GGCGCGAA | -0.0838
CAAATTTG | -0.173
ATCTACGC | 0.138
CCTGCAGG | 0.0238
AGGGAACA | -0.228
CCGTCTCG | 0.232
ACTTAGCA | -0.197
AACGCTTG | -0.164
ACCATAGC | 0.0297
TCTCGTCA | 0.0727
CCCCGCCA | 0.161
ACCAATAA | -0.163
AACCAATC | 0.0242
CGCAACAG | -0.143
GTATATAA | 0.245
CCAAACCG | -0.0953
CACGAGAC | 0.0598
GGATGTTA | -0.0502
CGCTGGAC | -0.254
CCCACGGC | -0.105

Sequence | binding signal [E-score]
AAGGGTAG | -0.102
ACGCACCG | -0.148
AGGTCAGA | -0.128
CAAGGGCC | -0.304
GCCAACGA | -0.238
GAAAAAAC | -0.333
TAGCCCTA | 0.0195
CAAGTCCG | -0.178
CGACCATA | 0.133
GAATTAAA | -0.208
AGCTAGCC | -0.14
AGAGCTAT | 0.00301
CTTAGTTA | 0.0232
ATATGGCG | 0.223
AAAACGTC | -0.259
AGGGCATA | 0.168
AAATTAGA | -0.206
GAAGTGGA | 0.0844
AATCCGCA | 0.204
CGGCTAGC | 0.0102
AAACACTC | -0.235
ACGAATCT | -0.0936
